This passage reports EC50 results from paper PMC10170197 (Open Biology, 2023).

One assay concerns the target T1, GFP-Caprin-1^356–386 (human).
T1 construct: source: E. coli BL21 T7 Express, purified (Strep-Tactin, TEV cleavage, Superdex 75); not shown: twin-Strep-tag-II, N-terminal, cleaved; GFP, N-terminal, kept
In words: BLI; GFP-USP10^1–28 / GFP-Caprin-1^356–386 (WT and mutants) amine-coupled on AR2G sensors, NTF2 dimer in solution; 25/25 mM HEPES/MOPS pH 7.4, 150 mM NaCl, 1% glycerol, 0.05% Tween-20; apparent EC50 from pseudo-equilibrium levels; WT and mutant surfaces compared at one NTF2 concentration in a second set. The conditions noted are these: both partners purified.

The next assay deals with GFP-USP10^1–28 (UniProt Q14694 1-28). Described as above. The conditions noted are these: both partners purified.

GFP-USP10^1–28, sequence (Q14694 1-28): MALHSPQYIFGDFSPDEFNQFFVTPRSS
GFP-Caprin-1^356–386, sequence (chain, as listed by the source): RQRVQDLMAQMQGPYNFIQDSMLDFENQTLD

B1: G3BP1-NTF2 ([…]) (domain or fragment)
chain: not shown
notes: G3BP1, NTF2-like domain, […]; Purified as a dimer; also called G3BP1-NTF2-WT; NTF2-WT; source: E. coli, purified (IMAC, Superdex 75 SEC, TEV cleavage, IMAC flow-through, SEC)
For the molecule B1, the results for the EC50 with GFP-Caprin-1^356–386 and in the assay with GFP-USP10^1–28 were 180 ± 110 nM and 20 ± 10 nM, respectively.
